# From publication PMC4336329 (PLoS ONE, 2015)
# In all, about 310,000 compounds went through this assay and about 2,200 (0.71%) showed an effect of 50% or more. Effects have a minus sign here. The list shows a part of the results.
# Target: human ether-à-go-go-related gene (hERG) potassium channel (human, UniProt Q12809)
# Test: primary screen, population patch clamp on CHO cells stably expressing hERG
# human ether-à-go-go-related gene (hERG) potassium channel, sequence (Q12809 whole entry, looked up): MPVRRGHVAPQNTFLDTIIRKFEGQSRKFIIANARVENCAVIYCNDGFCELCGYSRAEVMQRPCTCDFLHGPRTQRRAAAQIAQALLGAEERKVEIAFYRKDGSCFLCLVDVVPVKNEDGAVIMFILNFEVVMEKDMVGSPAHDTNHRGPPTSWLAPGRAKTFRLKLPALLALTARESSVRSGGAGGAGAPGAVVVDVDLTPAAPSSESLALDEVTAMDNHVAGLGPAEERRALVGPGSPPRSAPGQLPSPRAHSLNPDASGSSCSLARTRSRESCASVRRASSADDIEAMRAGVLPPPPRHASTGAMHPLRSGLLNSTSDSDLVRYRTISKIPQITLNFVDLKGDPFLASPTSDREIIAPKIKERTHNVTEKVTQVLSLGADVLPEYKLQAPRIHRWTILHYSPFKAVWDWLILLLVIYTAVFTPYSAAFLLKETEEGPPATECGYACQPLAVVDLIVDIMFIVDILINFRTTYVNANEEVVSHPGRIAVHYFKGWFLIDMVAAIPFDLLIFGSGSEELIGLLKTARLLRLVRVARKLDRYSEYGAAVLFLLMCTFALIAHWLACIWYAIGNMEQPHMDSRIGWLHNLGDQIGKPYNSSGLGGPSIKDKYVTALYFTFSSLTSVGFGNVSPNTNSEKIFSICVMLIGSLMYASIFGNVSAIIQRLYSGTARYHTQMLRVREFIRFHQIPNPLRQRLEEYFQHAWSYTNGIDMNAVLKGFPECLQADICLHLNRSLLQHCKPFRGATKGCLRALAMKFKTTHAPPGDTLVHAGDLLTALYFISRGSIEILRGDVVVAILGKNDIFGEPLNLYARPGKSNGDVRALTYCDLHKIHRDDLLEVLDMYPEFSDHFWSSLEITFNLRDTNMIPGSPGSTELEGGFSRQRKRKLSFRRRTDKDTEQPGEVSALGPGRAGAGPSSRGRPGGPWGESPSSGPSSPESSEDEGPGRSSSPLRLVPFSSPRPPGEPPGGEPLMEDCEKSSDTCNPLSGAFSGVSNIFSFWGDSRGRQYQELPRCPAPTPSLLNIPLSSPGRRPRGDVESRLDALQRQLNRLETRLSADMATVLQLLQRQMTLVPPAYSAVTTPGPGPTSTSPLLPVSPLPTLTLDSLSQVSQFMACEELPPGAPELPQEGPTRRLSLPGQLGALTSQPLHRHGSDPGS
row,Compound,"hERG current change (%, negative = inhibition) at 1uM [%]"
1,OCC[C@H]1C[C@H](O)[C@@H](O)[C@@]2(Cc3ccccc3CO2)O1,13.7
2,COc1ccc(/C=C2\SC(=O)N(CC(=O)Nc3cccc(C)c3)C2=O)cc1O,14.8
3,COc1ccc(OCCSc2nc3ccccc3n2CCC(=O)O)cc1,11.2
4,COc1ccccc1N1CCN(C(=O)c2ccc3[nH]c4c(c3c2)CCCC4)CC1,15.1
5,Cc1nn(C)cc1/C=N/NC(=O)c1sc2ccccc2c1Cl,7.54
6,COc1ccccc1/C=N/Nc1cc(N(C)C)nc(N(C)C)n1,-3.63
7,CC1=NN(C(C#N)c2ccccc2C)C(c2ccccc2)C1 (centres unmarked),9.72
8,COc1ccc(C(=O)NC2CCCc3ccccc32)cc1[N+](=O)[O-] (centres unmarked),4.45
9,Cc1ccccc1C(O)(Cc1ccccc1)C1CN2CCC1CC2.Cl (centres unmarked),-28.8
10,CCCCC(CC)COC(=O)c1ccc(N(C)C)cc1 (centres unmarked),10.1
11,CCCCCn1c(C)c2c(OCC)cccc(=O)c2c1C,-12.5
12,Cc1nn(C)c(Oc2ccccc2)c1CCNS(=O)(=O)c1ccc(F)cc1,17.1
13,CCOc1cc(C(=O)O/N=C(\N)c2ccc([N+](=O)[O-])cc2)cc(OCC)c1OCC,-10.8
14,CCCC(=O)Nc1nnc(CC(=O)N2CCCC2)s1,5.29
15,CC(C)CNS(=O)(=O)c1ccc(CCC(=O)NC2CCCC2)cc1,7.91
16,CCn1nnnc1SCC(=O)NCc1cccs1,11.8
17,COc1ccc(-n2c(SCC(=O)Nc3nccs3)nnc2-c2ccccc2)cc1,13.9
18,CN(C)/C=C/C(=O)c1cc(N2CCOCC2)ccc1[N+](=O)[O-],4.18
19,N/C(Cc1ccc(Cl)cc1Cl)=N\OC(=O)c1cccs1,-0.55

row,Compound,"hERG current change (%, negative = inhibition) at 1uM [%]"
1,Cc1ccc2nc(Cl)nc(-c3ccccc3)c2c1,7.36
2,CC(C)[C@H](NC(=O)[C@H](Cc1ccccc1)n1c(=O)[nH]c2ccccc2c1=O)C(=O)N[C@@H](Cc1ccccc1)C(=O)O,10.1
3,O=C(O)c1cccnc1SC1CC(=O)N(c2cccc3ccccc23)C1=O (centres unmarked),9.56
4,CCCCNCC1CCCO1 (centres unmarked),12.1
5,O=C(CCN1CCN(c2ccc(F)cc2)CC1)Nc1ccc(F)cc1,-16.8
6,CCN(CC)CCNC(=O)c1ccc(NC(=O)c2cn(-c3ccccc3)nc2-c2cccs2)cc1,-8.27
7,COc1ccc(OC)c2[nH]c(=O)c(CCNC(=O)COc3ccccc3)cc12,3.48
8,Cc1nn(C(C)(C)C)c(OC(=O)c2ccc(Br)o2)c1Sc1ccccc1,1.26
9,O=C(Nc1ccccc1N1CCOCC1)c1ccc(N2CCOCC2)c([N+](=O)[O-])c1,5.28
10,O=C(COC(=O)CCNS(=O)(=O)c1cccs1)Nc1ccccc1,4.28
11,Cc1cc(NC(=O)CCCn2nc(C)c([N+](=O)[O-])c2C)no1,10.7
12,O=S(=O)(c1ccc(F)c(F)c1)N1CCC2(CC1)OCCO2,5.71
13,COc1ccccc1N1CCN(C(=O)c2ccc(NC(C)=O)cc2)CC1,10.5
14,Cc1cc(NC(=O)COC(=O)c2c(C)nn(-c3ccccc3)c2C)no1,10.4
15,O=C(NC1CCN(Cc2ccccc2)CC1)C1CCN(S(=O)(=O)c2cccc([N+](=O)[O-])c2)CC1,11.3
16,Cc1c(C)c2ccc(O[C@@H]3O[C@H](CO)[C@H](O)[C@H](O)[C@H]3O)cc2oc1=O,6.5
17,O=C(COc1ncnc2ccccc12)N1CCN(C(=O)c2ccco2)CC1,-2.61
18,CC(C)(C)C(=O)Cn1ncc(N2CCOCC2)c(Cl)c1=O,-3.01
19,CCN(CC)c1ccc(C(=O)OCC(=O)NC(C)(C)C)cc1,7.8

row,Compound,"hERG current change (%, negative = inhibition) at 1uM [%]"
1,Cc1cc(Cl)ccc1C(=O)C1CCCN(C(=O)CCN2CCCO2)C1 (centres unmarked),6.31
2,CCc1ccc(/C=C2\SC(=S)N(CCC(=O)N3CCN(C)CC3)C2=O)cc1,11.7
3,COc1ccccc1Nc1nc(NCC2CCCO2)c2ccccc2n1.Cl (centres unmarked),-28.9
4,COc1ccc(OCC(=O)N2CCCC(CO)(CCOc3ccccc3)C2)cc1 (centres unmarked),-9.42
5,CCOc1ccc(-n2c(N)c(-c3nc4ccccc4[nH]3)sc2=S)cc1,9.61
6,COC(=O)C1=CN(Cc2ccc(F)cc2)C=C(C(=O)OC)C1c1cc(OC)c(OC)c(OC)c1,4.3
7,CCOC(=O)N1CCN(C(=O)C2CC(c3cc(OC)ccc3OC)=NO2)CC1 (centres unmarked),-4.89
8,CCOc1ccc(NC(=O)c2cn(-c3ccc(OCC)cc3)c(=O)c3cc(OC)c(OC)cc23)cc1,5.61
9,Cc1cccc(C)c1NC(=S)N(CCN(C)C)C(C)c1cccnc1 (centres unmarked),6.31
10,COc1ccc(C(NC(N)=O)c2ccccc2)cc1 (centres unmarked),14.7
11,O=C(Cc1ccccc1F)NCC(=O)Nc1ccccc1Br,11.2
12,O=C(CC(Nc1ccc(Cl)cc1)C(=O)O)c1ccccc1 (centres unmarked),9.1
13,COc1ccc(N=C2SC(CC(=O)Nc3ccccc3)C(=O)N2Cc2ccco2)cc1 (centres unmarked),14.7
14,Cc1ccc(C(C(=O)NC2CCCC2)N(C(=O)c2csnn2)c2ccccc2)o1 (centres unmarked),8.97
15,O=C(C1=C(O)C(=O)N(CCN2CCOCC2)C1c1ccncc1)c1ccco1 (centres unmarked),5.52
16,N#CCC(=O)Nc1ccc(C(=O)OCc2ccccc2Oc2ccccc2)cc1,14.9
17,C[C@H](NS(=O)(=O)c1ccc(Cl)cc1)C(=O)OCC(=O)c1ccc[nH]1,1.58
18,O=C(N/N=C/c1cccs1)c1ccc2ccccc2c1,14
